Values joined by “and” are separate entries in the source; they are usually repeats but may differ in a detail not shown here. Identical values can stand only once. Inconclusive means that the source gave no clear call. Such entries were picked first, then a sample of the others. For some of these results: A potency beside an inconclusive call is a rough fit, not a confirmed value. Active and inactive are the calls of the source. Unless noted, the call rests on the fitted dose curve; in most records, active means well fitted curve in the direction sought with a large enough effect in the repeat runs; inconclusive means weak or mixed curves; inactive means no such curve, though single readings can be large; an effect the other way counts as inactive or inconclusive.
What was measured:
[1] = molecular target: Peroxisome proliferator-activated receptor gamma (Homo sapiens) (UniProt P37231); assay: qHTS assay to identify small molecule agonists of the peroxisome proliferator-activated receptor gamma (PPARg) signaling pathway (AID 743094; active means well fitted activation curve with a large enough effect in the signal ratio in the repeat runs, not every such curve was filed as active; inconclusive means weak or mixed curves, or effect the other way; inactive means no such curve, though single readings can be large or run the other way; the % refers to the signal ratio; further: potency means the concentration at half of the fitted maximal effect); details: HEK293H PPARg-UAS-bla, beta-lactamase FRET ratio, 17 h; activation: at 57 µM (top of the series) unless noted
Procedure, shortened: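 Compounds dissolved in DMSO were added to PPARg UAS-bla HEK293H cells for 17 h at 37C, and reporter expression was quantified by fluorescence intensity after 1 h with LiveBLAzer B/G FRET substrate.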

[2] = molecular target: Peroxisome proliferator-activated receptor gamma (Homo sapiens) (UniProt P37231); assay: qHTS assay to identify small molecule antagonists of the peroxisome proliferator-activated receptor gamma (PPARg) signaling pathway (AID 743191; calls by dose curve; further: on the % scale 0 is the no-effect control and ±100 the full control effect; nearly all actives have a fitted effect of over 30% in size); details: HEK293H PPARg-UAS-bla, beta-lactamase ratio, antagonist, 17 h
Procedure, shortened: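 GeneBLAzer PPARg UAS-bla HEK293H cells carrying a UAS-driven beta-lactamase reporter were plated at 3000 cells/well, preincubated 5 h at 37C, then given compound for 17 h at 37C; LiveBLAzer B/G FRET substrate was read after 1 h at room temperature.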

[3] = qHTS assay to identify small molecule antagonists of the peroxisome proliferator-activated receptor gamma (PPARg) signaling pathway - cell viability counter screen (AID 743194); details: PPARg-bla HEK293H viability, CellTiter-Glo luminescence, 17 h, co-treated with 50 nM rosiglitazone; activity change, negative = cytotoxicity: at 62.6 µM (top of the series) unless noted; further: potency means the concentration at half of the fitted maximal effect; nearly all actives have a fitted effect of over 55% in size
Procedure, shortened: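 PPARg-UAS-bla HEK293H cells were plated, rested 5 h at 37 C, then treated with compounds plus rosiglitazone (50 nM final) for 17 h at 37 C; viability was then read by CellTiter-Glo luminescence after 30 min at room temperature.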

[4] = qHTS assay for small molecule agonists of the antioxidant response element (ARE) signaling pathway (AID 743202; active means well fitted activation curve with a large enough effect in the signal ratio in the repeat runs, not every such curve was filed as active; inconclusive means weak or mixed curves, or effect the other way; inactive means no such curve, though single readings can be large or run the other way; the % refers to the signal ratio; further: potency means the concentration at half of the fitted maximal effect; on activation: on the % scale 0 is the no-effect control and ±100 the full control effect); details: HepG2 ARE-bla reporter, beta-lactamase FRET, 16 h; activation: at 73.3 µM (top of the series) unless noted
Procedure, shortened: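 Read-out: LiveBLAzer B/G FRET substrate fluorescence after 2 h at room temperature, following 16 h compound treatment at 37 C of HepG2 cells carrying an ARE-driven beta-lactamase reporter.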

[5] = qHTS assay for small molecule agonists of the antioxidant response element (ARE) signaling pathway - cell viability counter screen (AID 743203; calls by dose curve; further: potency means the concentration at half of the fitted maximal effect; nearly all actives have a fitted effect of over 55% in size); details: ARE-bla HepG2 viability, CellTiter-Glo luminescence, 16 h; viability change, negative = cytotoxic: at 73.3 µM (top of the series)
Procedure, shortened: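 Following 16 hrs of compound treatment at 37C, HepG2 cells with an ARE-controlled beta-lactamase gene were lysed with CellTiter-Glo. Luminescence was read after 30 min at room temperature.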

[6] = qHTS assay for small molecule activators of the heat shock response signaling pathway - cell viability counter screen (AID 743209); details: HSE-bla HeLa viability, CellTiter-Glo luminescence, 5 h; activity change, negative = cytotoxicity: at 62.6 µM (top of the series) unless noted; further: potency means the concentration at half of the fitted maximal effect; nearly all actives have a fitted effect of over 50% in size
Procedure, shortened: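 Readout: CellTiter-Glo luminescence, 30 min at room temperature. System: HSE-bla HeLa cells, 1500/well, plated overnight. Treatment: compounds in DMSO, 5 h at 37 C.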

[7] = qHTS assay to identify small molecule agonists of the peroxisome proliferator-activated receptor delta (PPARd) signaling pathway - cell viability counter screen (AID 743211); details: PPARd-bla HEK293H viability, CellTiter-Glo luminescence, 17 h; activity change, negative = cytotoxicity: at 62.6 µM (top of the series); further: potency means the concentration at half of the fitted maximal effect; nearly all actives have a fitted effect of over 55% in size
Procedure, shortened: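 Following 5 h plating at 37 C and 5% CO2, PPARd UAS-bla HEK293H cells took up test compounds for 17 h. Viability was quantified by luminescence 30 min after CellTiter-Glo addition at room temperature.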

[8] = qHTS assay to identify small molecule antagonists of the peroxisome proliferator-activated receptor delta (PPARd) signaling pathway - cell viability counter screen (AID 743213); details: PPARd-bla HEK293H viability, CellTiter-Glo luminescence, 17 h; viability change, negative = cytotoxic: at 62 µM (top of the series) unless noted; further: potency means the concentration at half of the fitted maximal effect; nearly all actives have a fitted effect of over 50% in size
Procedure, shortened: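 Cytotoxicity counter screen: CellTiter-Glo luminescence read 30 min after addition, in the same wells as the reporter assay. There, PPARd UAS-bla HEK293H cells (3000/well) were treated 17 h at 37 C with compound and 300 nM L165041.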

[9] = molecular target: Peroxisome proliferator-activated receptor delta (Homo sapiens) (UniProt Q03181); assay: qHTS assay to identify small molecule antagonists of the peroxisome proliferator-activated receptor delta (PPARd) signaling pathway (AID 743215; active means well fitted inhibition curve with a large enough effect in the signal ratio in the repeat runs, not every such curve was filed as active; inconclusive means weak or mixed curves, or effect the other way; inactive means no such curve, though single readings can be large or run the other way; the % refers to the signal ratio;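 further: cells stimulated with agonist L165041 at 300 nM final during compound exposure; potency means the concentration at half of the fitted maximal effect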); details: HEK293H PPARd-UAS-bla, beta-lactamase FRET ratio, antagonist, 17 h; ratio activity, negative = inhibition: at 62 µM (top of the series) unless noted
Procedure, shortened: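 HEK293H UAS-bla, PPARd; agonist L165041 300 nM final with cpd in DMSO; 37 C 17 h; FRET substrate, RT 2 h; fluorescence intensity.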

[10] = qHTS assay to identify small molecule agonists of the farnesoid-X-receptor (FXR) signaling pathway - cell viability counter screen (AID 743218); details: FXR-bla HEK293T viability, CellTiter-Glo luminescence, 16 h; viability change, negative = cytotoxic: at 62.6 µM (top of the series) unless noted; further: potency means the concentration at half of the fitted maximal effect; nearly all actives have a fitted effect of over 45% in size
Procedure, shortened: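 Parallel cytotoxicity test: compound-treated (16 h, 37 C) HEK 293T FXR-bla reporter cells were lysed with CellTiter-Glo and luminescence recorded.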

[11] = qHTS assay to identify small molecule antagonists of the farnesoid-X-receptor (FXR) signaling pathway - cell viability counter screen (AID 743221; active means well fitted cell-killing curve with a large enough effect in the repeat runs, not every such curve was filed as active; inconclusive means weak or mixed curves, or effect the other way; inactive means no such curve, though single readings can be large or run the other way; further: potency means the concentration at half of the fitted maximal effect; nearly all actives have a fitted effect of over 50% in size); details: FXR-bla HEK293T viability, CellTiter-Glo luminescence, 16 h; activity change, negative = cytotoxicity: at 62.6 µM (top of the series)
Procedure, shortened: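 Compound effects on cell number were measured as CellTiter-Glo luminescence in HEK 293T cells expressing FXR-UAS-bla, after 16 h at 37 C with 50 uM CDCA (final).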

[12] = molecular target: Vitamin D3 receptor (Homo sapiens) (UniProt P11473); assay: qHTS assay to identify small molecule agonists of the vitamin D receptor (VDR) signaling pathway (AID 743222; calls by dose curve; further: potency means the concentration at half of the fitted maximal effect; on activation: on the % scale 0 is the no-effect control and ±100 the full control effect); details: HEK293T VDR-UAS-bla, beta-lactamase FRET ratio, 16 h; activation: at 63.5 µM (top of the series) unless noted
Procedure, shortened: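 In VDR-bla cells, compound-induced beta-lactamase expression is quantified by FRET substrate fluorescence. Treatment lasts 16 h at 37C; substrate develops 2 h at room temperature.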

[13] = molecular target: Vitamin D3 receptor (Homo sapiens) (UniProt P11473); assay: qHTS assay to identify small molecule antagonists of the vitamin D receptor (VDR) signaling pathway (AID 743223; active means well fitted inhibition curve with a large enough effect in the signal ratio in the repeat runs, not every such curve was filed as active; inconclusive means weak or mixed curves, or effect the other way; inactive means no such curve, though single readings can be large or run the other way; the % refers to the signal ratio; further: potency means the concentration at half of the fitted maximal effect; on activity change, negative = inhibition: on the % scale 0 is the no-effect control and ±100 the full control effect); details: VDR-UAS-bla HEK293T, beta-lactamase FRET ratio, 16 h
Procedure, shortened: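 Beta-lactamase activity in VDR-bla cells is measured by FRET substrate fluorescence (2 h, room temperature) after cells spend 16 h at 37C with test compound and 3 nM final 1alpha,25-dihydroxyvitamin D3.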

[14] = qHTS assay to identify small molecule agonists of the vitamin D receptor (VDR) signaling pathway - cell viability counter screen (AID 743224); details: VDR-bla HEK293T viability, CellTiter-Glo luminescence, 16 h; activity change, negative = cytotoxicity: at 62.6 µM (top of the series) unless noted; further: potency means the concentration at half of the fitted maximal effect; nearly all actives have a fitted effect of over 50% in size
Procedure, shortened: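 Plated VDR-bla cells (4 h, 37C) received compound, incubated 16 h, then LiveBLAzer substrate 2 h RT; CellTiter-Glo added afterwards, luminescence read at 30 min.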
Tags describe the fitted curve by direction and shape or compound fluorescence and quenching.

Chain of UniProt P37231 (P37231 whole entry, looked up): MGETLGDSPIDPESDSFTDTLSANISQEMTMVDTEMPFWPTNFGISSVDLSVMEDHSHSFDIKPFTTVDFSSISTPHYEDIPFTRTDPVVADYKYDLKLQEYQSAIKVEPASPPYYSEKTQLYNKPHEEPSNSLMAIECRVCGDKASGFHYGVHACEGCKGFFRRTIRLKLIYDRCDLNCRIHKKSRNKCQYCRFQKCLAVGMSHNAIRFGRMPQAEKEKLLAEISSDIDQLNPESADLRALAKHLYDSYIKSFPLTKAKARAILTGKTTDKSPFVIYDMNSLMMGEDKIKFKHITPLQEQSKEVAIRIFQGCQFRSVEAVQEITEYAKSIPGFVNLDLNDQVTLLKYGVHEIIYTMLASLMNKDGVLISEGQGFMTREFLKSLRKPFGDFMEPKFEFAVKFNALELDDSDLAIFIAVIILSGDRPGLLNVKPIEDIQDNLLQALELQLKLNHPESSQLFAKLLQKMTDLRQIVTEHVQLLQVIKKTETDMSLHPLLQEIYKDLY
Chain of UniProt P11473 (P11473 whole entry, looked up): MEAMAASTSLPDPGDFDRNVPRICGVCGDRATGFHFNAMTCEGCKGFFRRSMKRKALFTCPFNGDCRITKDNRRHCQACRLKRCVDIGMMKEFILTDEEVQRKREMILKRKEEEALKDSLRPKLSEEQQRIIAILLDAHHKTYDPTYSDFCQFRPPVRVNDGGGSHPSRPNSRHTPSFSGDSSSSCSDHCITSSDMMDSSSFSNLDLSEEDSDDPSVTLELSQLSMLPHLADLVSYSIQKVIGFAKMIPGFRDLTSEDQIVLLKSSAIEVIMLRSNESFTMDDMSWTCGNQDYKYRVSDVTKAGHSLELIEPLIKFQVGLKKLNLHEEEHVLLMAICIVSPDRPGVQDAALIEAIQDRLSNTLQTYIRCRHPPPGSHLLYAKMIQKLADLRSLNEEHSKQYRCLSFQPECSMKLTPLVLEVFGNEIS
Chain of UniProt Q03181 (Q03181 whole entry, looked up): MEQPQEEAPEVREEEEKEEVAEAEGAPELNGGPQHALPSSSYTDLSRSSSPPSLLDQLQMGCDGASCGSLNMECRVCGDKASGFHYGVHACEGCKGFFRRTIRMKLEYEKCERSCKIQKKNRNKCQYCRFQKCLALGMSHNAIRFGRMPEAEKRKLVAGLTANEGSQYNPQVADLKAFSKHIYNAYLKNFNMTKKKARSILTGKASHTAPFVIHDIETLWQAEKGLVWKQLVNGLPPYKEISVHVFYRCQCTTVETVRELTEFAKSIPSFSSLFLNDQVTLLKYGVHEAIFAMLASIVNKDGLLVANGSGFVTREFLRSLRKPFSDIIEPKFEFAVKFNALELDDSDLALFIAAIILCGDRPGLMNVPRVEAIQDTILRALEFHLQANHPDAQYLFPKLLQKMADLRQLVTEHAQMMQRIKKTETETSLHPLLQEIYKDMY

CN(C)C(=S)SC(=S)N(C)C
active: Potency [7] 710 nM and 389 nM and 1.33 µM | Potency [8] 3.99 µM and 549 nM and 944 nM | Potency [9] 0.596 µM | Potency [10] 502 nM and 2.45 µM and 1.68 µM | Potency ([13]; activity change, negative = inhibition: at 61 µM (top of the series) unless noted) 27.5 µM | Potency [14] 1.26 µM and 692 nM and 1.06 µM
inconclusive: Potency [1] 8.49 µM [fluorescent] and 796 nM [activator] and 5.49 µM [fluorescent, full curve] | ratio activity, negative = inhibition ([2]; at 62.6 µM (top of the series)) 15% | ratio activity, negative = inhibition ([2]; at 81.1 µM (top of the series)) -20.2% | Potency [3] 24.5 µM [cytotoxic, single point] and 1.88 µM [cytotoxic, full curve, poor fit] | Potency [4] 703 nM [rising, full curve] and 1.68 µM [rising, full curve] | activation [4] -26.3% | Potency [5] 498 nM [cytotoxic, full curve, poor fit] and 386 nM [cytotoxic, full curve] and 1.5 µM [cytotoxic, full curve] | Potency [6] 448 nM [cytotoxic, partial curve] and 245 nM [cytotoxic] and 1.19 µM [cytotoxic, single point] | Potency [11] 7.76 µM [falling, partial curve] | Potency [12] 616 nM [rising, partial curve] and 944 nM [rising, partial curve] | activation [12] 2.8% [at 81.1 µM] | activity change, negative = inhibition ([13]; at 61 µM (top of the series)) -46.1% | activity change, negative = inhibition ([13]; at 78.8 µM (top of the series)) -48%

— PubChem BioAssay (Tox21)
